Reference: the supplement of paper PMC4967469
IC50 is the fitted dose that halves viability relative to control wells, and lower means more sensitive; fits outside the tested doses are given as limits. AUC, from the same fit, is the share of area under the viability curve across the 256-fold dose range; it is 1 without any effect and falls as sensitivity rises. Where the top dose is marked as inferred, it comes from the curve model; the source does not state it. Drugs with an entry number were screened twice under separate entries, and the two screens often disagree.

Compound: CS(=O)(=O)N1CCN(Cc2cc3nc(-c4cccc5[nH]ncc45)nc(N4CCOCC4)c3s2)CC1 [GDC0941]
Assay: Viability of human cancer cell lines after 72 h of drug (GDSC screen)
Protocol: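 Human cancer cell lines in 384-well plates, medium with 10% serum, drug for 72 h over a 256-fold dose range (nine 2-fold or five 4-fold steps up to the top dose). Adherent lines were fixed and stained with the nucleic acid dye Syto60, suspension lines read with resazurin; signal relative to control wells, capped at 0 and 100%. One two-parameter sigmoid per drug and line, fitted in a mixed model over all curves with the slope shared within a line.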

[1] = top dose 4 µM, screen: GDSC drug entry 1527, top dose inferred

| Cell Line | AUC (screen: GDSC drug entry 1058) | IC50 (screen: GDSC drug entry 1058) [nM] | AUC [1] | IC50 [1] [nM] |
| --- | --- | --- | --- | --- |
| EW-16 (Ewing sarcoma, adherent, top dose 4 µM) | 0.724 | 1120 | – | – |
| OC-314 (ovary, adherent, top dose 4 µM) | 0.768 | 1300 | – | – |
| MRK-nu-1 (breast, suspension, top dose 4 µM) | 0.984 | > 4000 | – | – |
| KARPAS-422 (B-cell lymphoma, suspension, top dose 4 µM) | 0.646 | 631 | – | – |
| QIMR-WIL (acute myeloid leukaemia, suspension, top dose 4 µM) | 0.907 | > 4000 | – | – |
| WM793B (melanoma, adherent, top dose 4 µM) | 0.952 | > 4000 | – | – |
| FU-OV-1 (ovary, adherent, top dose 4 µM) | 0.833 | 3830 | – | – |
| SK-PN-DW (Ewing sarcoma, adherent, top dose 4 µM) | 0.77 | 1570 | – | – |
| CAL-72 (osteosarcoma, adherent, top dose 4 µM) | 0.918 | > 4000 | – | – |
| YAPC (pancreas, adherent, top dose 4 µM) | 0.914 | > 4000 | – | – |
| FU97 (stomach, adherent, top dose 4 µM) | 0.606 | 493 | – | – |
| SW962 (urogenital system, adherent, top dose 4 µM) | 0.738 | 1440 | – | – |
| RCC10RGB (kidney, adherent, top dose 4 µM) | 0.822 | > 4000 | – | – |
| KU-19-19 (bladder, adherent, top dose 4 µM) | 0.62 | 534 | – | – |
| LB996-RCC (kidney, adherent, top dose 2 µM) | 0.804 | 1200 | – | – |
| TE-8 (oesophagus, adherent, top dose 4 µM) | 0.827 | 2680 | – | – |
| COLO-205 (large intestine, suspension, top dose 4 µM) | 0.543 | 327 | – | – |
| DoTc2-4510 (cervix, adherent, top dose 4 µM) | 0.89 | > 4000 | – | – |
| EKVX (lung adenocarcinoma, adherent, top dose 4 µM) | 0.644 | 994 | – | – |
| PEO1 (ovary, adherent, top dose 4 µM) | 0.887 | > 4000 | – | – |
| MOLT-13 (T-cell lymphoblastic leukaemia, suspension, top dose 4 µM) | 0.926 | > 4000 | – | – |

| Cell Line | AUC (screen: GDSC drug entry 1058) | IC50 (screen: GDSC drug entry 1058) [nM] | AUC [1] | IC50 [1] [nM] |
| --- | --- | --- | --- | --- |
| EB-3 (Burkitt lymphoma, suspension, top dose 4 µM) | 0.984 | > 4000 | – | – |
| CP66-MEL (melanoma, adherent, top dose 4 µM) | 0.868 | > 4000 | – | – |
| KS-1 (glioma, adherent, top dose 4 µM) | 0.72 | 1240 | – | – |
| RPMI-7951 (melanoma, adherent, top dose 4 µM) | 0.8 | 1860 | – | – |
| NMC-G1 (glioma, adherent, top dose 4 µM) | 0.887 | > 4000 | – | – |
| JVM-3 (lymphoid neoplasm, suspension, top dose 4 µM) | 0.807 | 2080 | – | – |
| Hs633T (fibrosarcoma, adherent, top dose 4 µM) | 0.705 | 833 | – | – |
| TE-12 (oesophagus, suspension, top dose 4 µM) | 0.67 | 828 | – | – |
| L-540 (Hodgkin lymphoma, suspension, top dose 4 µM) | 0.983 | > 4000 | – | – |
| NU-DUL-1 (B-cell lymphoma, suspension, top dose 4 µM) | 0.327 | 91.8 | – | – |
| SUP-T1 (T-cell lymphoblastic leukaemia, suspension, top dose 4 µM) | 0.753 | 1230 | – | – |
| EHEB (lymphoid neoplasm, suspension, top dose 4 µM) | 0.692 | 1110 | – | – |
| H4 (glioma, adherent, top dose 4 µM) | 0.665 | 714 | – | – |
| COLO-320-HSR (large intestine, suspension, top dose 4 µM) | 0.711 | 896 | – | – |
| LB373-MEL-D (melanoma, adherent, top dose 4 µM) | 0.939 | > 4000 | – | – |
| MS-1 (small cell lung carcinoma, suspension, top dose 4 µM) | 0.877 | 3290 | – | – |
| UWB1.289 (ovary, adherent, top dose 4 µM) | 0.779 | 2580 | – | – |
| NCI-H2066 (small cell lung carcinoma, adherent) | – | – | 0.893 | > 4000 |
| OV-17R (ovary, adherent, top dose 4 µM) | 0.757 | 1900 | – | – |
| NB17 (neuroblastoma, adherent, top dose 4 µM) | 0.984 | > 4000 | – | – |
| SNU-423 (liver, adherent, top dose 4 µM) | 0.801 | 2360 | – | – |

| Cell Line | AUC (screen: GDSC drug entry 1058) | IC50 (screen: GDSC drug entry 1058) [nM] | AUC [1] | IC50 [1] [nM] |
| --- | --- | --- | --- | --- |
| NOS-1 (osteosarcoma, adherent, top dose 4 µM) | 0.511 | 269 | – | – |
| RERF-LC-Sq1 (lung squamous cell carcinoma, adherent, top dose 4 µM) | 0.693 | 1130 | – | – |
| RO82-W-1 (thyroid, adherent, top dose 4 µM) | 0.803 | 2660 | – | – |
| SW626 (ovary, adherent, top dose 4 µM) | 0.884 | > 4000 | – | – |
| NCI-H1770 (non-small cell lung carcinoma, suspension, top dose 4 µM) | 0.909 | > 4000 | – | – |
| Hep 3B2_1-7 (liver, adherent, top dose 4 µM) | 0.718 | 1040 | – | – |
| JEG-3 (urogenital system, adherent, top dose 4 µM) | 0.939 | > 4000 | – | – |
| HT-115 (large intestine, adherent, top dose 4 µM) | 0.863 | 2970 | – | – |
| HuCCT1 (biliary tract, adherent, top dose 4 µM) | 0.881 | > 4000 | – | – |
| SU-DHL-6 (B-cell lymphoma, suspension, top dose 4 µM) | 0.15 | 32.6 | – | – |
| GT3TKB (stomach, adherent, top dose 2 µM) | 0.943 | > 2000 | – | – |
| NCI-H3122 (lung adenocarcinoma, adherent, top dose 4 µM) | 0.755 | 1390 | – | – |
| KYAE-1 (oesophagus, suspension, top dose 4 µM) | 0.521 | 286 | – | – |
| TE-9 (oesophagus, adherent, top dose 4 µM) | 0.974 | > 4000 | – | – |
| HCC38 (breast, adherent, top dose 4 µM) | 0.964 | > 4000 | – | – |
| HT (B-cell lymphoma, suspension, top dose 4 µM) | 0.639 | 583 | – | – |
| GDM-1 (acute myeloid leukaemia, suspension, top dose 4 µM) | 0.803 | 1880 | – | – |
| SU-DHL-16 (B-cell lymphoma, suspension, top dose 4 µM) | 0.567 | 363 | – | – |
| IST-SL1 (small cell lung carcinoma, semi-adherent, top dose 4 µM) | 0.987 | > 4000 | – | – |
